Broadly, the % Inhibition is the drop in the measured response relative to a control, in per cent.

Screen size: about 150,000 compounds; about 540 (0.36%) showed an effect of 50% or more. The list shows a part of the results.

In the assay the test system is Plasmodium falciparum. In words: Primary screen in NF54 nanoGlo assay, in single point, at 2uM, 72h; a lower Z score goes with more inhibition. The assay is classed as functional, Erythrocyte. The conditions noted are these: timepoint 72 hour.
In the case of `CCNC(=O)N1CC[C@H](NCc2cc(F)ccc2Br)C1`, the “% Inhibition” value was -10% and the Z score is 0.9.
For `CO[C@H]1[C@@H]2CC[C@H]1CN(Cc1coc(-c3ccccc3)n1)C2`, in that order: -19% and 2.43.
For `Cc1nn(C)cc1C(C)NC(=O)NC[C@@H]1C[C@@H](C(C)C)c2ccccc21` (stereo partly specified), in that order: -11% and 1.75.
In the case of `CCC(C)N(Cc1ccc(OC)cc1)CC(O)COCc1ccco1` (stereo unspecified), the “% Inhibition” value is -7% and the Z score is given as 0.98.
For `Cc1nc(-c2nc(C(C)(C)NC(=O)c3ccccc3)no2)co1`, in that order: -15% and 2.39.
For `CC(CCN1CCCC(c2nnc[nH]2)C1)c1ccccc1` (stereo unspecified), in that order: -12% and 1.55.
For `O=C(Nc1nnc(CC(F)(F)F)s1)C1CC12CCOC2` (stereo unspecified) the same measures were 0% and 0.04.
Consider `CCn1ncc(C(=O)N2CCC(Cc3ccc(COc4ccc(F)cc4)cc3)CC2)c1C`, for which the “% Inhibition” value is recorded as -12% and the Z score was 2.26.
For `Cc1cnn(Cc2c(C(=O)N3CC4(C3)C[C@](C)(O)CO4)noc2C)c1` the same measures were -4% and 0.58.
For `CC(C)Cc1nnc2n1CC(C)(C)CC2`, in that order: -1% and 0.13.
For `COC(=O)c1cccc(C(=O)N2CCC[C@@H]2Cc2ccccc2Cl)n1` the same measures were -4% and 0.55.
For `CCc1nc(N(C)C[C@H](O)COC)ncc1C`, the “% Inhibition” value is recorded as -19% and the Z score came out at 1.99.
For `O[C@H]1CCOC[C@@H]1Nc1ccnc2cc(Cl)ccc12`, in that order: 5% and -0.99.
For `COc1c(O)ccc2c(=O)c3c(O)cc(O)c(OC)c3n(C)c12`, in that order: 42% and -4.72.
Consider `CN1CCN(C[C@@H]2CN(C(=O)Cc3c[nH]c4ccccc34)C[C@@H]2CO)CC1`, for which the “% Inhibition” value is listed as -8% and the Z score is 1.52.
For `FC(F)(F)c1cc(N2CCN(c3ncnc4c3CCCC4)CC2)ncn1`, in that order: -14% and 1.77.
For `Cn1nc2c(c1C(=O)N1CC(Cc3ccoc3)C1)CCC2`, in that order: -4% and 0.7.
For `COc1cc2c(nn1)CCN(CC(=O)Nc1nncs1)C2` the same measures were 11% and -1.06.
For the compound `Cc1nc2ccccc2c(N2CCC(c3nnc[nH]3)CC2)c1C`, the “% Inhibition” value is recorded as -8% and the Z score is 0.86.
For `Cc1cc(C(=O)N(C)CC2(CO)CCOCC2)cc2sc(N)nc12`, in that order: -12% and 2.12.
For `CC1CCN(C(=O)NC(=O)c2ccccc2)CC1` the same measures were -12% and 1.4.
For `CC(C)c1noc(CN[C@H](c2ccccc2)C2(CO)CCOCC2)n1` the same measures were -4% and 0.42.
Take `CCc1ccc([C@H](COC)NS(=O)(=O)CCOCC2CC2)o1`: the “% Inhibition” value came to 6% and the Z score is on record as -1.06.
For `CN(C[C@H]1CCCCN1C)c1ccc(C(N)=O)cn1` the same measures were -11% and 2.15.
For `CCC(NS(=O)(=O)CCC1CCCO1)c1cccs1` (stereo unspecified) the same measures were -3% and 0.33.
As to `CCn1c(=O)sc2cc(NC(=O)COc3ccc(Cl)cc3)ccc21`, the “% Inhibition” value stood at 1% and the Z score was -0.08.
For `CCOC[C@H]1CCN(Cc2cccn2CC(=O)OC(C)(C)C)C1`, in that order: 4% and -0.42.
For `CCn1c(=O)c(N2CCC[C@H](C(=O)NCc3cccc(C)c3)C2)nc2ccccc21` the same measures were 31% and -0.01.
For `COc1cccc(-c2nn(Cc3ccccc3)c(-c3cccc(OC)c3)c2Cl)c1` the same measures were 27% and -3.06.
For `NC(=O)C[C@@H](NC(=O)c1nc2n(n1)CCCN2)c1cccc(Cl)c1`, the “% Inhibition” value is 6% and the Z score is -1.13.
`Cn1cc(C(=O)N2CC[C@@](O)(c3ccccc3)[C@H]3CCCC[C@@H]32)ccc1=O`: the “% Inhibition” value is reported as -6% and the Z score worked out at 1.14.
On to `Cc1coc(-c2cccc(NC(=O)N(C)C[C@H](O)C(F)(F)F)c2)n1`, for which the “% Inhibition” value is listed as -12% and the Z score was 1.43.
In the case of `Cc1noc(C(C)(C)S(=O)(=O)C2CC2)n1`, the “% Inhibition” value was 8% and the Z score is -1.35.
In the case of `CC1CC(C)CN(CC(C)NCc2cncn2C)C1` (stereo unspecified), the “% Inhibition” value is given as 5% and the Z score is on record as -0.73.
For `O=C(Cc1noc(-c2cnccn2)n1)Nc1ccccn1`, the “% Inhibition” value is reported as -4% and the Z score turned out to be 0.79.
For `C1CCC(Nc2nc(C3CC3)ns2)C1`, in that order: -13% and 1.58.
For `CCN(CC1CCN(c2ccccn2)CC1)C(=O)[C@H]1CC[C@@H](c2ccccc2)O1` the same measures were 0% and -0.02.
For `O=C(CC1CCCC1)Nc1nc(C2CC2)cs1`, in that order: -2% and 0.27.
Take `CCCCn1nnnc1N1CCN(C(=O)c2cccn2C)CC1`: the “% Inhibition” value is -3% and the Z score worked out at 0.44.
With `CCC(CC)C(=O)N1CC(=O)N2CC[C@@H](CC(=O)N3CCOCC3)[C@@H](/C=C\COc3ccccc3C1)C2`, the “% Inhibition” value is given as -5% and the Z score stood at 0.69.
For `O=C(CCN(C(=O)COCc1ccccc1)C1CCCCC1)Nc1nnc(-c2cccc(Cl)c2)s1` the same measures were -13% and 1.88.
For `CNc1cc(C)nc(-c2cccc(C(=O)N(CCO)CCN(C)C)c2)n1` the same measures were -15% and 1.75.
For `CCNc1ncc(C(=O)NCc2nc(C)cc(C)n2)cn1`, the “% Inhibition” value is recorded as -1% and the Z score is recorded as 0.22.

(Values after ChEMBL document CHEMBL4888484, “Replenishing the malaria drug discovery pipeline: Screening and hit evaluation of the MMV Hit Generation Library 1 (HGL1) against asexual blood stage Plasmodium falciparum ,using a nano luciferase reporter read-out” (2022).)
